Results reported in the supplement of paper PMC8728848.
The list shows a part of the results.

Experiments:
Test in all cases: glycan array binding signal (z-score within array); higher = stronger binding
Details in all cases: glycan notation: IUPAC condensed, linker removed
[1] = molecular target: Fuc(a1-2)Gal(b1-4)GlcNAc(b1-3)Gal(b1-4)GlcNAc(b1-3)Gal(b1-4)GlcNAc
In short: (§1)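 Columns mapping to the same glycan were averaged after glycan names were converted to IUPAC-condensed notation. The data come from 3228 arrays in the Consortium for Functional Glycomics database, limited to those with an available protein sequence. Binding is reported as a within-array Z-score averaged across arrays of one protein sequence and across linkers.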

[2] = molecular target: Fuc(a1-2)Gal(b1-4)GlcNAc(b1-3)GalNAc
In short: as §1

[3] = molecular target: Fuc(a1-2)Gal(b1-4)GlcNAc(b1-3)[Fuc(a1-2)Gal(b1-4)GlcNAc(b1-6)]GalNAc
In short: as §1

[4] = molecular target: Fuc(a1-2)Gal(b1-4)GlcNAc(b1-3)[Fuc(a1-3)[Gal(b1-4)]GlcNAc(b1-6)]Gal(b1-4)Glc
In short: as §1

[5] = molecular target: Fuc(a1-2)Gal(b1-4)GlcNAc(b1-6)GalNAc
In short: as §1

[6] = molecular target: Fuc(a1-2)Gal(b1-4)GlcNAc6S
In short: as §1

[7] = molecular target: Fuc(a1-2)Gal(b1-4)[Fuc(a1-3)]GlcNAc
In short: as §1

[8] = molecular target: Fuc(a1-2)Gal(b1-4)[Fuc(a1-3)]GlcNAc(b1-2)Man(a1-3)[Fuc(a1-2)Gal(b1-4)[Fuc(a1-3)]GlcNAc(b1-2)Man(a1-6)]Man(b1-4)GlcNAc(b1-4)[Fuc(a1-6)]GlcNAc
In short: as §1

[9] = molecular target: Fuc(a1-2)Gal(b1-4)[Fuc(a1-3)]GlcNAc(b1-2)[Fuc(a1-2)Gal(b1-4)[Fuc(a1-3)]GlcNAc(b1-4)]Man(a1-3)[Fuc(a1-2)Gal(b1-4)[Fuc(a1-3)]GlcNAc(b1-2)Man(a1-6)]Man(b1-4)GlcNAc(b1-4)GlcNAc
In short: as §1

[10] = molecular target: Fuc(a1-2)Gal(b1-4)[Fuc(a1-3)]GlcNAc(b1-3)Gal(b1-4)[Fuc(a1-3)]GlcNAc
In short: as §1

[11] = molecular target: Fuc(a1-2)Gal(b1-4)[Fuc(a1-3)]GlcNAc(b1-3)Gal(b1-4)[Fuc(a1-3)]GlcNAc(b1-3)Gal(b1-4)[Fuc(a1-3)]GlcNAc
In short: as §1

[12] = molecular target: Fuc(a1-2)Gal(b1-4)[Fuc(a1-3)]GlcNAc(b1-3)GalNAc
In short: as §1

[13] = molecular target: Fuc(a1-2)Gal(b1-4)[Fuc(a1-3)]GlcNAc(b1-3)[Neu5Ac(a2-6)Gal(b1-4)GlcNAc(b1-6)]Gal(b1-4)Glc
In short: as §1

[14] = molecular target: Fuc(a1-2)Gal3S(b1-4)GlcNAc
In short: as §1

[15] = molecular target: Fuc(a1-2)Gal6S(b1-3)GlcNAc
In short: as §1

[16] = molecular target: Fuc(a1-2)Gal6S(b1-3)GlcNAc6S
In short: as §1

Fuc(a1-2)Gal6S(b1-4)Glc = molecular target: Fuc(a1-2)Gal6S(b1-4)Glc
In short: as §1

[17] = molecular target: Fuc(a1-2)Gal6S(b1-4)Glc6S
In short: as §1

Fuc(a1-2)[Gal(a1-3)]Gal = molecular target: Fuc(a1-2)[Gal(a1-3)]Gal
In short: as §1

[18] = molecular target: Fuc(a1-2)[Gal(a1-3)]Gal(b1-3)GalNAc
In short: as §1

[19] = molecular target: Fuc(a1-2)[Gal(a1-3)]Gal(b1-3)GalNAc(b1-3)Gal(a1-4)Gal(b1-4)Glc
In short: as §1

[20] = molecular target: Fuc(a1-2)[Gal(a1-3)]Gal(b1-3)GlcNAc
In short: as §1

[21] = molecular target: Fuc(a1-2)[Gal(a1-3)]Gal(b1-3)GlcNAc(b1-2)Man(a1-3)[Fuc(a1-2)[Gal(a1-3)]Gal(b1-3)GlcNAc(b1-2)Man(a1-6)]Man(b1-4)GlcNAc(b1-4)GlcNAc
In short: as §1

[22] = molecular target: Fuc(a1-2)[Gal(a1-3)]Gal(b1-3)GlcNAc(b1-2)Man(a1-3)[Fuc(a1-2)[Gal(a1-3)]Gal(b1-3)GlcNAc(b1-2)Man(a1-6)]Man(b1-4)GlcNAc(b1-4)[Fuc(a1-6)]GlcNAc
In short: as §1

[23] = molecular target: Fuc(a1-2)[Gal(a1-3)]Gal(b1-3)GlcNAc(b1-3)GalNAc
In short: as §1

[24] = molecular target: Fuc(a1-2)[Gal(a1-3)]Gal(b1-3)GlcNAc(b1-6)GalNAc
In short: as §1

[25] = molecular target: Fuc(a1-2)[Gal(a1-3)]Gal(b1-4)Glc
In short: as §1

[26] = molecular target: Fuc(a1-2)[Gal(a1-3)]Gal(b1-4)GlcNAc
In short: as §1

[27] = molecular target: Fuc(a1-2)[Gal(a1-3)]Gal(b1-4)GlcNAc(b1-2)Man
In short: as §1

[28] = molecular target: Fuc(a1-2)[Gal(a1-3)]Gal(b1-4)GlcNAc(b1-2)Man(a1-3)[Fuc(a1-2)[Gal(a1-3)]Gal(b1-4)GlcNAc(b1-2)Man(a1-6)]Man(b1-4)GlcNAc(b1-4)GlcNAc
In short: as §1

[29] = molecular target: Fuc(a1-2)[Gal(a1-3)]Gal(b1-4)GlcNAc(b1-2)Man(a1-3)[Fuc(a1-2)[Gal(a1-3)]Gal(b1-4)GlcNAc(b1-2)Man(a1-6)]Man(b1-4)GlcNAc(b1-4)[Fuc(a1-6)]GlcNAc
In short: as §1

[30] = molecular target: Fuc(a1-2)[Gal(a1-3)]Gal(b1-4)GlcNAc(b1-3)GalNAc
In short: as §1

[31] = molecular target: Fuc(a1-2)[Gal(a1-3)]Gal(b1-4)GlcNAc(b1-3)[Fuc(a1-2)[Gal(a1-3)]Gal(b1-4)GlcNAc(b1-6)]GalNAc
In short: as §1

[32] = molecular target: Fuc(a1-2)[Gal(a1-3)]Gal(b1-4)GlcNAc(b1-6)GalNAc
In short: as §1

[33] = molecular target: Fuc(a1-2)[Gal(a1-3)]Gal(b1-4)[Fuc(a1-3)]Glc
In short: as §1

[34] = molecular target: Fuc(a1-2)[Gal(a1-3)]Gal(b1-4)[Fuc(a1-3)]GlcNAc
In short: as §1

[35] = molecular target: Fuc(a1-2)[Gal(a1-3)]Gal(b1-4)[Fuc(a1-3)]GlcNAc(b1-3)GalNAc
In short: as §1

[36] = molecular target: Fuc(a1-2)[Gal(a1-4)]Gal(b1-4)GlcNAc
In short: as §1

[37] = molecular target: Fuc(a1-2)[GalNAc(a1-3)]Gal
In short: as §1

[38] = molecular target: Fuc(a1-2)[GalNAc(a1-3)]Gal(b1-3)GalNAc(a1-3)[Fuc(a1-2)]Gal(b1-4)GlcNAc
In short: as §1

[39] = molecular target: Fuc(a1-2)[GalNAc(a1-3)]Gal(b1-3)GalNAc(b1-3)Gal(a1-4)Gal(b1-4)Glc
In short: as §1

[40] = molecular target: Fuc(a1-2)[GalNAc(a1-3)]Gal(b1-3)GlcNAc
In short: as §1

[41] = molecular target: Fuc(a1-2)[GalNAc(a1-3)]Gal(b1-3)GlcNAc(b1-2)Man(a1-3)[Fuc(a1-2)[GalNAc(a1-3)]Gal(b1-3)GlcNAc(b1-2)Man(a1-6)]Man(b1-4)GlcNAc(b1-4)GlcNAc
In short: as §1

[42] = molecular target: Fuc(a1-2)[GalNAc(a1-3)]Gal(b1-3)GlcNAc(b1-2)Man(a1-3)[Fuc(a1-2)[GalNAc(a1-3)]Gal(b1-3)GlcNAc(b1-2)Man(a1-6)]Man(b1-4)GlcNAc(b1-4)[Fuc(a1-6)]GlcNAc
In short: as §1

[43] = molecular target: Fuc(a1-2)[GalNAc(a1-3)]Gal(b1-3)GlcNAc(b1-3)GalNAc
In short: as §1

B1: LecB PA7 (Pseudomonas aeruginosa) (protein)
chain: MATQGVFTLPANTRFGVTAFANSSATQTVKVLVNNETAATFTGQSTNNAVIGSQVLNSGGGGKVQIQVSVNGRSSDLVSAQVILANELNVALVGSEDSTDNDYNDAVVVINWPLG
- glycan array binding signal (z-score) [1]: 3.71
- glycan array binding signal (z-score) [2]: 0.923
- glycan array binding signal (z-score) [3]: 1.32
- glycan array binding signal (z-score) [4]: 0.964
- glycan array binding signal (z-score) [5]: 0.819
- glycan array binding signal (z-score) [6]: 1.51
- glycan array binding signal (z-score) [7]: 2.33
- glycan array binding signal (z-score) [8]: 5.18
- glycan array binding signal (z-score) [9]: -0.08
- glycan array binding signal (z-score) [10]: 4.93
- glycan array binding signal (z-score) [11]: 4.08
- glycan array binding signal (z-score) [12]: -0.338
- glycan array binding signal (z-score) [13]: 0.243
- glycan array binding signal (z-score) [14]: 1.23
- glycan array binding signal (z-score) [15]: 0.906
- glycan array binding signal (z-score) [16]: 0.022
- glycan array binding signal (z-score) (Fuc(a1-2)Gal6S(b1-4)Glc): 1.01
- glycan array binding signal (z-score) [17]: 1.43
- glycan array binding signal (z-score) (Fuc(a1-2)[Gal(a1-3)]Gal): -0.071
- glycan array binding signal (z-score) [18]: -0.454
- glycan array binding signal (z-score) [19]: -0.43
- glycan array binding signal (z-score) [20]: -0.458
- glycan array binding signal (z-score) [21]: -0.145
- glycan array binding signal (z-score) [22]: 0.145
- glycan array binding signal (z-score) [23]: -0.479
- glycan array binding signal (z-score) [24]: -0.488
- glycan array binding signal (z-score) [25]: -0.36
- glycan array binding signal (z-score) [26]: -0.44
- glycan array binding signal (z-score) [27]: -0.446
- glycan array binding signal (z-score) [28]: -0.375
- glycan array binding signal (z-score) [29]: 0.222
- glycan array binding signal (z-score) [30]: -0.47
- glycan array binding signal (z-score) [31]: -0.458
- glycan array binding signal (z-score) [32]: -0.461
- glycan array binding signal (z-score) [33]: 0.207
- glycan array binding signal (z-score) [34]: 0.348
- glycan array binding signal (z-score) [35]: 0.197
- glycan array binding signal (z-score) [36]: 1.38
- glycan array binding signal (z-score) [37]: -0.237
- glycan array binding signal (z-score) [38]: -0.464
- glycan array binding signal (z-score) [39]: -0.491
- glycan array binding signal (z-score) [40]: -0.334
- glycan array binding signal (z-score) [41]: -0.372
- glycan array binding signal (z-score) [42]: 0.199
- glycan array binding signal (z-score) [43]: -0.491
